# In the supplement of paper PMC8728848:
# The list shows a part of the results.
# B1: PpFlo2 (Pichia pastoris) (protein)
# chain: MGSSHHHHHHSSGLVPRGSHMDDSGNGDNSDTAYGCDITTNAVDGFDATIYQYNANDLRLIRDPTFMSTGYLGRNVLNKISGVTVPGFNIWNPSSRTATVYGVKNVNYYNMVLELKGYFKADVSGDYKLTLSHIDDSSMLFFGKETAFKCCDAGSIPLNEAPTDYSLFTIKPSNQVNSEVISATQYLEAGKYYPVRIVFVNALERARFDFKLTIPSGAVLDDFQNYIYQFGDLDENSCHE
# Legend:
# Experiment in all cases: glycan array binding signal (z-score within array); higher = stronger binding
# Details in all cases: glycan notation: IUPAC condensed, linker removed
# Kdn(a2-6)Gal(b1-4)GlcNAc = biological target: Kdn(a2-6)Gal(b1-4)GlcNAc
# Summary of the method: (§1)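 Columns mapping to the same glycan were averaged after glycan names were converted to IUPAC-condensed notation. The data come from 3228 arrays in the Consortium for Functional Glycomics database, limited to those with an available protein sequence. Binding is reported as a within-array Z-score averaged across arrays of one protein sequence and across linkers.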
# [1] = biological target: Man(a1-2)Man(a1-2)Man(a1-3)Man
# Summary of the method: as §1
# [2] = biological target: Man(a1-2)Man(a1-2)Man(a1-6)[Man(a1-3)]Man
# Summary of the method: as §1
# Man(a1-2)Man(a1-3)Man = biological target: Man(a1-2)Man(a1-3)Man
# Summary of the method: as §1
# [3] = biological target: Man(a1-2)Man(a1-3)[Man(a1-2)Man(a1-6)]Man
# Summary of the method: as §1
# [4] = biological target: Man(a1-2)Man(a1-3)[Man(a1-2)Man(a1-6)]Man(a1-6)[Man(a1-2)Man(a1-2)Man(a1-3)]Man
# Summary of the method: as §1
# [5] = biological target: Man(a1-2)Man(a1-3)[Man(a1-2)Man(a1-6)]Man(a1-6)[Man(a1-2)Man(a1-2)Man(a1-3)]Man(b1-4)GlcNAc(b1-4)GlcNAc
# Summary of the method: as §1
# [6] = biological target: Man(a1-2)Man(a1-3)[Man(a1-6)]Man(a1-6)[Man(a1-2)Man(a1-3)]Man(b1-4)GlcNAc(b1-4)GlcNAc
# Summary of the method: as §1
# [7] = biological target: Man(a1-2)Man(a1-6)[Man(a1-3)]Man(a1-6)[Man(a1-2)Man(a1-2)Man(a1-3)]Man
# Summary of the method: as §1
# [8] = biological target: Man(a1-2)Man(a1-6)[Man(a1-3)]Man(a1-6)[Man(a1-2)Man(a1-2)Man(a1-3)]Man(b1-4)GlcNAc(b1-4)GlcNAc
# Summary of the method: as §1
# Man(a1-3)[Man(a1-6)]Man = biological target: Man(a1-3)[Man(a1-6)]Man
# Summary of the method: as §1
# [9] = biological target: Man(a1-3)[Man(a1-6)]Man(a1-6)[Man(a1-2)Man(a1-3)]Man(b1-4)GlcNAc(b1-4)GlcNAc
# Summary of the method: as §1
# [10] = biological target: Man(a1-3)[Man(a1-6)]Man(a1-6)[Man(a1-3)]Man
# Summary of the method: as §1
# [11] = biological target: Man(a1-3)[Man(a1-6)]Man(a1-6)[Man(a1-3)]Man(b1-4)GlcNAc(b1-4)GlcNAc
# Summary of the method: as §1
# [12] = biological target: Man(a1-3)[Man(a1-6)]Man(b1-4)GlcNAc(b1-4)GlcNAc
# Summary of the method: as §1
# [13] = biological target: Man(a1-3)[Man(a1-6)]Man(b1-4)GlcNAc(b1-4)[Fuc(a1-6)]GlcNAc
# Summary of the method: as §1
# Man(a1-6)Man = biological target: Man(a1-6)Man
# Summary of the method: as §1
# Man(b1-4)GlcNAc = biological target: Man(b1-4)GlcNAc
# Summary of the method: as §1
# MurNAc(b1-4)GlcNAc = biological target: MurNAc(b1-4)GlcNAc
# Summary of the method: as §1
# Neu5Ac(a2-3)Gal = biological target: Neu5Ac(a2-3)Gal
# Summary of the method: as §1
# [14] = biological target: Neu5Ac(a2-3)Gal(b1-3)GalNAc
# Summary of the method: as §1
# [15] = biological target: Neu5Ac(a2-3)Gal(b1-3)GalNAc(b1-3)Gal(a1-4)Gal(b1-4)Glc
# Summary of the method: as §1
# [16] = biological target: Neu5Ac(a2-3)Gal(b1-3)GalNAc(b1-4)[Neu5Ac(a2-3)]Gal(b1-4)Glc
# Summary of the method: as §1
# [17] = biological target: Neu5Ac(a2-3)Gal(b1-3)GalNAc(b1-4)[Neu5Ac(a2-8)Neu5Ac(a2-3)]Gal(b1-4)Glc
# Summary of the method: as §1
# [18] = biological target: Neu5Ac(a2-3)Gal(b1-3)GalNAc6S
# Summary of the method: as §1
# [19] = biological target: Neu5Ac(a2-3)Gal(b1-3)GlcNAc
# Summary of the method: as §1
# [20] = biological target: Neu5Ac(a2-3)Gal(b1-3)GlcNAc(b1-2)Man
# Summary of the method: as §1
# [21] = biological target: Neu5Ac(a2-3)Gal(b1-3)GlcNAc(b1-2)Man(a1-3)[GlcNAc(b1-4)][Neu5Ac(a2-3)Gal(b1-3)GlcNAc(b1-2)Man(a1-6)]Man(b1-4)GlcNAc(b1-4)GlcNAc
# Summary of the method: as §1
# [22] = biological target: Neu5Ac(a2-3)Gal(b1-3)GlcNAc(b1-2)Man(a1-3)[Neu5Ac(a2-3)Gal(b1-3)GlcNAc(b1-2)Man(a1-6)]Man(b1-4)GlcNAc(b1-4)GlcNAc
# Summary of the method: as §1
# [23] = biological target: Neu5Ac(a2-3)Gal(b1-3)GlcNAc(b1-3)Gal(b1-3)GlcNAc
# Summary of the method: as §1
# [24] = biological target: Neu5Ac(a2-3)Gal(b1-3)GlcNAc(b1-3)Gal(b1-4)GlcNAc
# Summary of the method: as §1
# [25] = biological target: Neu5Ac(a2-3)Gal(b1-3)GlcNAc(b1-3)GalNAc
# Summary of the method: as §1
# [26] = biological target: Neu5Ac(a2-3)Gal(b1-3)GlcNAc(b1-4)Gal(b1-4)Glc
# Summary of the method: as §1
# [27] = biological target: Neu5Ac(a2-3)Gal(b1-3)GlcNAc(b1-6)GalNAc
# Summary of the method: as §1
# [28] = biological target: Neu5Ac(a2-3)Gal(b1-3)GlcNAc6S
# Summary of the method: as §1
# [29] = biological target: Neu5Ac(a2-3)Gal(b1-3)[Fuc(a1-4)]GlcNAc
# Summary of the method: as §1
# [30] = biological target: Neu5Ac(a2-3)Gal(b1-3)[Fuc(a1-4)]GlcNAc(b1-3)Gal(b1-3)[Fuc(a1-4)]GlcNAc
# Summary of the method: as §1
binder,measurement,setting,value
B1,glycan array binding signal (z-score),Kdn(a2-6)Gal(b1-4)GlcNAc,-0.297
same,glycan array binding signal (z-score),[1],-0.276
same,glycan array binding signal (z-score),[2],-0.295
same,glycan array binding signal (z-score),Man(a1-2)Man(a1-3)Man,-0.29
same,glycan array binding signal (z-score),[3],-0.303
same,glycan array binding signal (z-score),[4],-0.299
same,glycan array binding signal (z-score),[5],-0.288
same,glycan array binding signal (z-score),[6],-0.276
same,glycan array binding signal (z-score),[7],-0.301
same,glycan array binding signal (z-score),[8],-0.292
same,glycan array binding signal (z-score),Man(a1-3)[Man(a1-6)]Man,-0.299
same,glycan array binding signal (z-score),[9],-0.252
same,glycan array binding signal (z-score),[10],-0.299
same,glycan array binding signal (z-score),[11],-0.266
same,glycan array binding signal (z-score),[12],0.074
same,glycan array binding signal (z-score),[13],-0.248
same,glycan array binding signal (z-score),Man(a1-6)Man,-0.298
same,glycan array binding signal (z-score),Man(b1-4)GlcNAc,-0.299
same,glycan array binding signal (z-score),MurNAc(b1-4)GlcNAc,-0.149
same,glycan array binding signal (z-score),Neu5Ac(a2-3)Gal,-0.301
same,glycan array binding signal (z-score),[14],-0.302
same,glycan array binding signal (z-score),[15],-0.297
same,glycan array binding signal (z-score),[16],-0.301
same,glycan array binding signal (z-score),[17],-0.292
same,glycan array binding signal (z-score),[18],-0.3
same,glycan array binding signal (z-score),[19],-0.294
same,glycan array binding signal (z-score),[20],-0.271
same,glycan array binding signal (z-score),[21],-0.27
same,glycan array binding signal (z-score),[22],-0.268
same,glycan array binding signal (z-score),[23],-0.256
same,glycan array binding signal (z-score),[24],-0.293
same,glycan array binding signal (z-score),[25],-0.298
same,glycan array binding signal (z-score),[26],-0.277
same,glycan array binding signal (z-score),[27],-0.275
same,glycan array binding signal (z-score),[28],-0.295
same,glycan array binding signal (z-score),[29],-0.304
same,glycan array binding signal (z-score),[30],-0.292
